# Some of the results follow. Many values rest on one well or one pass, so single values are uncertain.
# Legend:
# Test in all cases: cell count relative to DMSO control; melanoma cells; higher = more viable cells
# Conditions in all cases: library dose: low library concentration; 72 h
# MZ2-MEL = system: MZ2-MEL
# MeWo = system: MeWo
# RPMI7951 = system: RPMI7951
# RVH-421 = system: RVH-421
# SkMel28 = system: SkMel28
# SkMel2 = system: SkMel2
# SkMel30 = system: SkMel30
# UACC62 = system: UACC62
# SkMel5 = system: SkMel5
# UACC257 = system: UACC257
# 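Further: cell number obtained by counting DAPI-stained nuclei in high-throughput microscope images with image analysis software, screen run in 1,536-well plates.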
SMILES,cell count (MZ2-MEL) [%],cell count (MeWo) [%],cell count (RPMI7951) [%],cell count (RVH-421) [%],cell count (SkMel28) [%],cell count (SkMel2) [%],cell count (SkMel30) [%],cell count (UACC62) [%],cell count (SkMel5) [%],cell count (UACC257) [%]
"O=C(/C=C/c1cccnc1)NCCCCC1CCN(C(=O)c2ccccc2)CC1 + CC(=O)c1c(C)c2cnc(Nc3ccc(N4CCNCC4)cn3)nc2n(C2CCCC2)c1=O [palbociclib] (first compound 0.01 µM, partner dose 0.04 µM)",42.1,82.9,79.5,49.9,93.2,64.4,73.6,81.9,,
"Cc1ccc(Nc2nccc(N(C)c3ccc4c(C)n(C)nc4c3)n2)cc1S(N)(=O)=O [Pazopanib] + CN(NC(=O)CC(=O)NN(C)C(=S)c1ccccc1)C(=S)c1ccccc1 [STA4783] (first compound 0.4 µM, partner dose 0.006 µM)",77.2,94.3,90.7,90.3,94,101,91.5,69.9,97.2,82.7
"CC1(C)CCC(c2ccc(Cl)cc2)=C(CN2CCN(c3ccc(C(=O)NS(=O)(=O)c4ccc(N[C@H](CCN5CCOCC5)CSc5ccccc5)c(S(=O)(=O)C(F)(F)F)c4)cc3)CC2)C1 + CCCCCCCCCCCC1=C(O)C(=O)C=C(O)C1=O [Embelin] (first compound 0.4 µM, partner dose 1.2 µM)",102,48.6,56,84.2,101,85.9,65,87.1,67.7,73.3
"CC1(C)CCC(c2ccc(Cl)cc2)=C(CN2CCN(c3ccc(C(=O)NS(=O)(=O)c4ccc(N[C@H](CCN5CCOCC5)CSc5ccccc5)c(S(=O)(=O)C(F)(F)F)c4)cc3)CC2)C1 + COc1ccc(-c2ccc3c(N4CCOCC4)nc(N4C[C@@H](C)O[C@@H](C)C4)nc3n2)cc1CO [KU0063794] (first compound 0.4 µM, partner dose 0.02 µM)",87,72.6,51.8,68.6,84.2,76.1,59.3,79.9,78.5,76.6
"O=C(/C=C/c1cccnc1)NCCCCC1CCN(C(=O)c2ccccc2)CC1 + Cn1cc(/C=C2\C(=O)Nc3cccnc32)c2ccccc21 [GW441756] (first compound 0.01 µM, partner dose 0.4 µM)",48.8,121,101,64.4,65.4,41.2,113,88.4,82.9,70.4
"Cc1ccc(Nc2nccc(N(C)c3ccc4c(C)n(C)nc4c3)n2)cc1S(N)(=O)=O [Pazopanib] + O=C(O)C(=O)Nc1sc2c(c1C(=O)O)CCNC2 [TCS401] (first compound 0.4 µM, partner dose 1.66667 µM)",73,116,90.8,102,90,114,104,108,82,88.3
"O=C(/C=C/c1cccnc1)NCCCCC1CCN(C(=O)c2ccccc2)CC1 + CN(C)S(=O)(=O)c1ccc2c(c1)/C(=C/c1cc3c([nH]1)CCCC3)C(=O)N2 [SU6656] (first compound 0.01 µM, partner dose 0.4 µM)",44.2,88.8,105,53.7,80.2,44.1,107,80.3,86.3,107
"O=C(/C=C/c1cccnc1)NCCCCC1CCN(C(=O)c2ccccc2)CC1 + COc1cc2ncnc(Nc3ccc(Oc4ccccc4)cc3)c2cc1OC [SrcI1] (first compound 0.01 µM, partner dose 2 µM)",40,111,106,57.1,94.6,36.6,93.3,112,104,120
"CC1(C)CCC(c2ccc(Cl)cc2)=C(CN2CCN(c3ccc(C(=O)NS(=O)(=O)c4ccc(N[C@H](CCN5CCOCC5)CSc5ccccc5)c(S(=O)(=O)C(F)(F)F)c4)cc3)CC2)C1 + Cc1nc(Nc2ncc(C(=O)Nc3c(C)cccc3Cl)s2)cc(N2CCN(CCO)CC2)n1 [dasatanib] (first compound 0.4 µM, partner dose 0.004 µM)",68.4,60.2,42.5,86.8,80.3,90,71,91.5,,
"Cc1ccc(Nc2nccc(N(C)c3ccc4c(C)n(C)nc4c3)n2)cc1S(N)(=O)=O [Pazopanib] + O=C(Nc1ccccc1)c1cc([N+](=O)[O-])ccc1Cl [GW9662] (first compound 0.4 µM, partner dose 2 µM)",78.1,96.8,97.2,95.7,107,104,83,107,96,80.7
"CC1(C)CCC(c2ccc(Cl)cc2)=C(CN2CCN(c3ccc(C(=O)NS(=O)(=O)c4ccc(N[C@H](CCN5CCOCC5)CSc5ccccc5)c(S(=O)(=O)C(F)(F)F)c4)cc3)CC2)C1 + O=C(O)C(=O)Nc1sc2c(c1C(=O)O)CCNC2 [TCS401] (first compound 0.4 µM, partner dose 1.66667 µM)",93.6,72.1,60.7,62.2,115,86.8,63.2,94.7,63.4,68.7
"CC1(C)CCC(c2ccc(Cl)cc2)=C(CN2CCN(c3ccc(C(=O)NS(=O)(=O)c4ccc(N[C@H](CCN5CCOCC5)CSc5ccccc5)c(S(=O)(=O)C(F)(F)F)c4)cc3)CC2)C1 + Oc1cc(-c2nc(-c3ccccc3)[nH]c2-c2ccncc2)ccc1Cl [L779450] (first compound 0.4 µM, partner dose 0.2 µM)",80.4,67.1,54.6,46.2,62.4,62.4,80,64.6,59.1,61.2
"CC1(C)CCC(c2ccc(Cl)cc2)=C(CN2CCN(c3ccc(C(=O)NS(=O)(=O)c4ccc(N[C@H](CCN5CCOCC5)CSc5ccccc5)c(S(=O)(=O)C(F)(F)F)c4)cc3)CC2)C1 + O=C1NC(=O)/C(=C/c2ccc(-c3ccc(F)cc3O)o2)S1 [AS252424] (first compound 0.4 µM, partner dose 1 µM)",93.4,73.7,53.9,73.9,83.5,91.2,65.9,94.2,75.6,92.8
"Cc1ccc(Nc2nccc(N(C)c3ccc4c(C)n(C)nc4c3)n2)cc1S(N)(=O)=O [Pazopanib] + NC(=O)Nc1cc(-c2cccc(F)c2)sc1C(=O)N[C@H]1CCCNC1 [AZD7762] (first compound 0.4 µM, partner dose 0.02 µM)",80.1,102,88.1,106,145,103,89.7,111,103,118
"CC1(C)CCC(c2ccc(Cl)cc2)=C(CN2CCN(c3ccc(C(=O)NS(=O)(=O)c4ccc(N[C@H](CCN5CCOCC5)CSc5ccccc5)c(S(=O)(=O)C(F)(F)F)c4)cc3)CC2)C1 + COc1cc2c(Oc3ccc4[nH]c(C)cc4c3F)ncnc2cc1OCCCN1CCCC1 [cediranib] (first compound 0.4 µM, partner dose 0.4 µM)",95.9,77.6,65.7,80.6,106,93.6,73,98.7,73.2,73.3
"O=C(/C=C/c1cccnc1)NCCCCC1CCN(C(=O)c2ccccc2)CC1 + O=C(CCCCCCC(=O)Nc1ccccc1)NO [vorinostat] (first compound 0.01 µM, partner dose 0.08 µM)",74.6,89,124,84.6,78,76,112,82.4,79,79.1
"CC1(C)CCC(c2ccc(Cl)cc2)=C(CN2CCN(c3ccc(C(=O)NS(=O)(=O)c4ccc(N[C@H](CCN5CCOCC5)CSc5ccccc5)c(S(=O)(=O)C(F)(F)F)c4)cc3)CC2)C1 + O=C(Nc1ccccc1)c1cc([N+](=O)[O-])ccc1Cl [GW9662] (first compound 0.4 µM, partner dose 2 µM)",96.4,67.9,53.9,67.8,98.9,80,71.5,83.4,65.4,66.4
"Cc1ccc(Nc2nccc(N(C)c3ccc4c(C)n(C)nc4c3)n2)cc1S(N)(=O)=O [Pazopanib] + O=c1cc(-c2cccc3c2Sc2ccccc2S3)oc(N2CCOCC2)c1 [KU55933] (first compound 0.4 µM, partner dose 1 µM)",79.7,105,91,116,101,104,95.5,120,106,100
